Here are results for 89 compounds from paper PMC4336329 (PLoS ONE, 2015).

The campaign covered roughly 310,000 compounds. About 2,200 (0.71%) showed an effect of 50% or more. Effects have a minus sign here. The list shows a part of the results.

Sequence of human ether-à-go-go-related gene (hERG) potassium channel (Q12809 whole entry, looked up): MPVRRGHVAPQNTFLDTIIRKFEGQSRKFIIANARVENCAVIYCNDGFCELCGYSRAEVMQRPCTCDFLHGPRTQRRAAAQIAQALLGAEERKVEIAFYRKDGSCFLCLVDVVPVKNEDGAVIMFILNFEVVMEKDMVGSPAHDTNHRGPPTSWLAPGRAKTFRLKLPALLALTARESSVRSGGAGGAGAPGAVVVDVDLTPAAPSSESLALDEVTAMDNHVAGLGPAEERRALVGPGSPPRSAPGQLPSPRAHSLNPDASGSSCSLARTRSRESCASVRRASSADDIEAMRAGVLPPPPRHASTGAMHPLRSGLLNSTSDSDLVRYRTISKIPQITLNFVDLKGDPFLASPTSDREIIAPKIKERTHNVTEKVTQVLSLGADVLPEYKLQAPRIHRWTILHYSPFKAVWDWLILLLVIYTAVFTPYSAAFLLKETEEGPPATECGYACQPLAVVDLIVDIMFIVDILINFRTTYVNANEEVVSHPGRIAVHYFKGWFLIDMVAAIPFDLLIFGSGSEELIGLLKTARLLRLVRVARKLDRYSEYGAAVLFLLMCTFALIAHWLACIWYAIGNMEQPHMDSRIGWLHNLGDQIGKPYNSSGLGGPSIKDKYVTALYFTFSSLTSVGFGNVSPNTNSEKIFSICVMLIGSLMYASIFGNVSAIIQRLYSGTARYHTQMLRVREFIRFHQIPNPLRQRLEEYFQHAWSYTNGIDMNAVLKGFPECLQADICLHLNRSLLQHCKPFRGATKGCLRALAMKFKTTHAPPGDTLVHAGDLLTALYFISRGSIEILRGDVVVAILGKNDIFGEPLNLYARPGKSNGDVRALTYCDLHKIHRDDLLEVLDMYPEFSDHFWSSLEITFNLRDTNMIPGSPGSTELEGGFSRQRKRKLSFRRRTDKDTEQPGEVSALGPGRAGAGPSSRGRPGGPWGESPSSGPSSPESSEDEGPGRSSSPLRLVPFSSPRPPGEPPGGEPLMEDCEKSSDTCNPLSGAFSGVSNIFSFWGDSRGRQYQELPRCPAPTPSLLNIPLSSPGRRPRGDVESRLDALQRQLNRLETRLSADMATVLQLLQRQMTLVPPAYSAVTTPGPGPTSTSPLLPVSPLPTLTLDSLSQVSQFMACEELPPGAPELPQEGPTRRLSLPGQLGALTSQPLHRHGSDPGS

This assay has as its target human ether-à-go-go-related gene (hERG) potassium channel (human, UniProt Q12809). In words: primary screen, population patch clamp on CHO cells stably expressing hERG.
Regarding `Cc1onc(C(=O)Nc2sc3c(c2C#N)CCCC3)c1[N+](=O)[O-]`, the “hERG current change (%, negative = inhibition) at 1uM” value turned out to be 10.8%.
As to `COc1ccc(-c2cc(C(F)(F)F)n3nc(C(=O)NCc4ccco4)c(Cl)c3n2)cc1`, the “hERG current change (%, negative = inhibition) at 1uM” value amounted to 13.1%.
Then `Cn1c(=O)c2ncn(CC(=O)O)c2n(C)c1=O`, with 15.4%; and `CCCCn1c(N)c(N(CC(C)C)C(=O)c2cccc(S(=O)(=O)N3CC(C)OC(C)C3)c2)c(=O)[nH]c1=O` (centres unmarked), with 18%.
For the compound `Cc1ccc(CN2CCC(n3nccc3NC(=O)CCOc3ccccc3)CC2)o1`, the “hERG current change (%, negative = inhibition) at 1uM” value is 3.11%.
Then `CCn1cc(C(=O)NCCN(CC(C)C)CC(C)C)c(=O)c2cc(S(=O)(=O)N3CCOCC3)ccc21`, with 2.38%; and `CCOc1c(/C=C(\C#N)C(N)=O)c2ccccc2n1CC`, with 7.72%.
As to `COCc1cc(C)nc2sc(C(=O)Nc3ccc(OC)cc3)c(N)c12`, the “hERG current change (%, negative = inhibition) at 1uM” value came out at 11.7%.
Then `O=C1Nc2ccc(Br)cc2C1=Nc1cccnc1`, with 1.49%.
Then `COc1ccc(CNCc2ccccc2C(F)(F)F)cc1.O=C(O)C(=O)O`, with 11.1%; and `CCC(C)NCCOCCOc1ccc(Cl)cc1Br.O=C(O)C(=O)O` (centres unmarked), with 3.42%.
Next, `CCCCCCCC(=O)N/N=C(\C)c1cccnc1`: 0.0128%; `NS(=O)(=O)c1ccc(NC(=O)COC(=O)COc2ccc(Cl)cc2)cc1`: 9.38%; `COc1ccccc1N1CCN(C(c2cccs2)C(C)NC(=O)C(=O)N2CCCCC2)CC1` (centres unmarked): 1.31%.
Take `COc1ccc(C(=O)/C=C/c2ccsc2)cc1CSCC(=O)O`: the “hERG current change (%, negative = inhibition) at 1uM” value came to 13.4%.
Consider `COc1ccc(CN2CCNC(=O)C2CC(=O)N(C)CCCN2CCOCC2)cc1C` (centres unmarked), for which the “hERG current change (%, negative = inhibition) at 1uM” value was found to be 23.3%.
With `CCC(C)NS(=O)(=O)c1cccs1` (centres unmarked), the “hERG current change (%, negative = inhibition) at 1uM” value worked out at 11.4%.
Then `COc1ccc(S(=O)(=O)N2CCC(NC(=O)c3cccnc3)CC2)cc1`, with -18.5%; and `Cc1ccc(/C=N/NC(=O)Cn2cnc3ccccc32)cc1`, with 20%.
Then `COCCNC(=O)[C@H]1N2C(=O)c3c(ccc(OC)c3OC)C2SC1(C)C` (some centres unmarked), with 10.4%.
Turning to `O=C(NCCc1ccccc1)C1CC(=O)N(CCc2ccccc2)C1` (centres unmarked), the “hERG current change (%, negative = inhibition) at 1uM” value is recorded as 20.4%.
`Cc1ccc(NC(=O)c2c(C(=O)Nc3ccccc3)sc3nc(C)cc(=O)n23)cc1`: the “hERG current change (%, negative = inhibition) at 1uM” value came out at 19.2%.
Then `Cc1cc(C)nc(SCNC(=O)c2ccc(F)cc2)n1`, with 8.24%; and `CC(CCc1ccccc1)NS(=O)(=O)c1ccccc1Cl` (centres unmarked), with 6%; and `Cc1ccc2c(C)c(C(=O)Nc3c(C)n(C)n(-c4ccccc4)c3=O)oc2c1C`, with 1.47%.
Then `COc1ccc(N2C(=O)c3cccc4cccc(c34)C2=O)nn1`, with -0.519%.
Then `CC1CN(C(=O)COC(=O)[C@@H]2CC(O)CN2S(=O)(=O)c2ccc3c(c2)OCCO3)CC(C)O1` (some centres unmarked), with 4.78%; and `CCOC(=O)N1CCN(CCCc2ccccc2)CC1`, with 5.69%.
Take `O=C(O)CCCC(=O)Nc1ccc(Br)cc1C(=O)O`: the “hERG current change (%, negative = inhibition) at 1uM” value was 6.35%.
In the case of `Cc1cc(C(F)F)nn1CC(=O)N1CCSCC1`, the “hERG current change (%, negative = inhibition) at 1uM” value is reported as -0.544%.
Next, `COc1ccc(/C=C/C(=O)NC(=S)Nc2ccc(S(=O)(=O)Nc3ccc(OC)nn3)cc2)cc1`: 11.8%; `Cc1cccc2[nH]c3c(N4CCC5(CC4)OCCO5)ncnc3c12`: 4.29%; `CC(C)(C)c1cc2nc(N)nc(N)n2n1`: 11.2%.
Next, `COc1ccc(C(C)NC(=O)C23CC4CC(CC(C4)C2)C3)cc1` (centres unmarked): 17.4%; `Cn1cc(Cl)c(C(=O)Nc2nc3ccccc3s2)n1`: 2.83%.
Next, `c1ccc(Oc2nc(Oc3ccccc3)nc(N3CCOCC3)n2)cc1`: 7.06%; `COCCNC(=O)C(OC(=O)c1ccco1)c1ccccc1F` (centres unmarked): 9.12%.
Consider `COC(=O)c1cc2sccc2n1Cc1nc(-c2ccc(Cl)cc2)oc1C`, for which the “hERG current change (%, negative = inhibition) at 1uM” value was 14.4%.
Then `COc1ccc(-c2csc(-c3cc4ccccc4oc3=N)n2)cc1`, with 0.392%; and `Cl.N=c1c[n+](N2CCOCC2)[n-]o1`, with 16.5%; and `O=C(NCCc1ccc(Cl)cc1Cl)c1ccc2nc[nH]c2c1`, with 16.8%.
Then `Cc1cc(C)n(-c2c(F)c(F)c(CN3CCOCC3)c(F)c2F)n1`, with 11%.
On to `COCCN(Cc1ccccc1)C(=O)C1CCN(S(=O)(=O)c2ccc3c(c2)OCCO3)CC1`, for which the “hERG current change (%, negative = inhibition) at 1uM” value is 2.69%.
Then `CC(=Nc1c(C)n(C)n(-c2ccccc2)c1=O)c1c(O)n(Cc2ccccc2)c(=O)[nH]c1=O`, with 18.8%; and `O=S1(=O)CCC(N=Cc2cc(Br)ccc2O)C1` (centres unmarked), with -1.7%; and `CCC(=O)Nc1ccccc1C(=O)N1CCOCC1`, with 16.3%.
Next, `Cc1ccc(NC(=O)CSc2nnc(Cc3ccccc3)o2)c(C)c1`: 8.91%; `COc1ccc(OC)c(CC(=O)Nc2ccc3c(c2)CCC3)c1`: 15%; `Oc1c(C(Nc2cccc(C(F)(F)F)c2)c2ccncc2)ccc2cccnc12` (centres unmarked): 11.8%.
Then `CCOCCCNc1nc2nc3ccc(C)cn3c(=O)c2cc1C(=O)NCC1CCCO1` (centres unmarked), with -76%; and `CCn1nnnc1NCc1ccc(Cl)cc1`, with 12%.
Regarding `CCCn1c(SCC(=O)NCc2ccc3c(c2)OCO3)n[nH]c1=O`, the “hERG current change (%, negative = inhibition) at 1uM” value was 1.82%.
Consider `Cc1cc(C)n(C(=O)CNC(=O)/C=C/c2ccccc2)n1`, for which the “hERG current change (%, negative = inhibition) at 1uM” value was 5.83%.
On to `CCC(C)N(C)C1CCN(C(=S)Nc2ccc(OC)cc2)CC1` (centres unmarked), for which the “hERG current change (%, negative = inhibition) at 1uM” value was 3.89%.
Next, `CCc1cc(=O)oc2cc(OCC(=O)NCCN3CCOCC3)c(Cl)cc12`: 10.5%; `Cc1c(C(=O)OCC(=O)N2CCCC2=O)oc2ccccc12`: 15.7%.
In the case of `CCN(CC)c1ccc(NC(=O)c2cccnc2)cc1`, the “hERG current change (%, negative = inhibition) at 1uM” value was 7.65%.
Next, `O=C(NCc1ccccc1)c1ccc2c(c1)C(=O)N(Cc1ccncc1)C2=O`: -7.46%; `CCCCn1c(N)c(N(CCC(C)C)C(=O)COC(=O)c2cccnc2Cl)c(=O)[nH]c1=O`: 8.18%; `CCN(CC)CCNC(=O)CCc1c(C)nc2c(c(C)nn2-c2ccc(C)cc2)c1C`: 1.45%.
Next, `COc1ccc(N2C(=O)[C@@H]3[C@H](C2=O)[C@H]2C=CC=NN2[C@@H]3C(=O)Nc2ccc(Cl)cc2)cc1`: 0.474%; `COc1ccccc1-c1nc(-c2ccc(Br)o2)no1`: 14.9%; `COc1ccc(CCNC(=O)CSc2nnc(CNc3ccc(Cl)cc3)o2)cc1OC`: -3.87%.
Then `O=C1c2ccccc2NC(c2ccccc2O)N1c1ccc(F)cc1` (centres unmarked), with 8.4%; and `COc1ccc(/C=C/C(=O)c2ccc([N+](=O)[O-])o2)cc1OC`, with 13.1%.
On to `Cn1c(=O)c(C(=O)NNC(=O)c2ccccc2Cl)c(O)c2ccccc21`, for which the “hERG current change (%, negative = inhibition) at 1uM” value was found to be 10.3%.
Then `CCCC1NC(=S)N(C2CCCCC2)C1=O` (centres unmarked), with 10.8%; and `CC(C)Oc1ccccc1C1(c2ccccc2)NC(=O)NC1=O` (centres unmarked), with 14.5%.
As to `Cc1ccc2c(c1)NC(=O)C(CC(=O)NCCCN1CCCCC1C)O2` (centres unmarked), the “hERG current change (%, negative = inhibition) at 1uM” value was 2.12%.
Turning to `Cc1ncc(CO)c(/C=N/NC(=O)c2cccc(S(=O)(=O)N3CCCC3)c2)c1O`, the “hERG current change (%, negative = inhibition) at 1uM” value was 11.3%.
As to `N/C(=N\OC(=O)/C=C/c1ccccc1)c1ccccc1`, the “hERG current change (%, negative = inhibition) at 1uM” value is 10.4%.
Then `COc1ccc(CNC(=O)Cn2nc([N+](=O)[O-])c(Br)c2C)cc1`, with 1.36%.
Then `CCOC(=O)C1=C(CNCCc2ccc(Cl)cc2)NC(=O)NC1c1ccc2c(c1)OCO2` (centres unmarked), with 3.23%; and `CCOC(=O)c1ccc(NS(=O)(=O)c2c(C)n[nH]c2C)cc1`, with 5.61%; and `COc1cc(OC)c2c(-c3ccccc3)cc(=O)oc2c1C(CC(=O)N1CCCC1)c1ccc2c(c1)OCO2` (centres unmarked), with 14.6%.
As for `O=C1C2C3C=CC(C3)C2C(=O)N1Nc1c(Cl)cc(Cl)cc1Cl` (centres unmarked), the “hERG current change (%, negative = inhibition) at 1uM” value was found to be 8.13%.
Next, `COc1cc(/C=C/C(=O)OCC(=O)NC(=O)NC23CC4CC(CC(C4)C2)C3)ccc1OCC#N`: 14.4%; `COc1ccc(CCNC(=O)C2CCCN(S(=O)(=O)c3cnc[nH]3)C2)cc1OC` (centres unmarked): 9.59%; `O=Cc1ccc(Oc2cc(-c3ccccc3)nc(-c3ccccc3)n2)cc1`: 11.8%.
`O=C(NCC1CCCO1)c1cccc(Oc2ccc([N+](=O)[O-])cc2)c1` (centres unmarked): the “hERG current change (%, negative = inhibition) at 1uM” value was -6.66%.
Consider `Br.Cc1cccc(C2CN(C)CCc3c2cc(O)c(O)c3Cl)c1` (centres unmarked), for which the “hERG current change (%, negative = inhibition) at 1uM” value was -20.6%.
Next, `Cc1nnc(SCC(=O)N2CCCC2)n(N)c1=O`: 8.28%.
Next, `c1ccc(CN2CCCC3(CCCN(Cc4nc(CC5CC5)no4)C3)C2)cc1` (centres unmarked): 1.67%.
For the compound `CC1=[N+]([O-])C(N2CCOCC2)C(O)(c2ccccc2)C1` (centres unmarked), the “hERG current change (%, negative = inhibition) at 1uM” value stood at 12.1%.
Next, `O=C(NCc1ccccc1)N[C@@H](Cc1ccccc1)C(=O)O`: -7.86%.
Next, `OC(COc1ccc2ccccc2c1)Cn1ccnc1` (centres unmarked): 7.23%.
Next, `CCOC(=O)c1ccc(N2C(=O)CC(N3CCC(C(N)=O)(N4CCCCC4)CC3)C2=O)cc1` (centres unmarked): 10.3%; `CCN(C(=O)CN1CCN(c2cccc(C(F)(F)F)c2)CC1)c1c(N)n(Cc2ccccc2)c(=O)[nH]c1=O`: -6.82%; `Cc1cc(C(=O)CN2C(=O)C(=O)N(Cc3ccccc3)C2=O)c(C)n1Cc1ccc(F)cc1`: 11.9%.
